According to the supplement of paper PMC4967469:
Lines with a small IC50 respond at low doses; a limit (>, <) means that the fit lies beyond the doses tested. AUC is the area under the same curve over the 256-fold range up to the top dose, as a fraction; it is 1 without any effect and falls as sensitivity rises. For some of these results: Any top dose called inferred was derived from the fitted curves, not read from the paper. For some of these results: Where an entry number is given, a second screen of the drug exists; the two often differ.

Assays:
Assay in all cases: Viability of human cancer cell lines after 72 h of drug (GDSC screen)
[1] = compound: CC(C)[C@H](C(=O)Nc1ccc(C(=O)NO)cc1)c1ccccc1 [AR-42]; details: top dose 5.12 µM; top dose inferred
Protocol: (§1)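 Human cancer cell lines in 384-well plates, medium with 10% serum, drug for 72 h over a 256-fold dose range (nine 2-fold or five 4-fold steps up to the top dose). Adherent lines were fixed and stained with the nucleic acid dye Syto60, suspension lines read with resazurin; signal relative to control wells, capped at 0 and 100%. One two-parameter sigmoid per drug and line, fitted in a mixed model over all curves with the slope shared within a line.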

[2] = compound: C[C@]12O[C@H](C[C@]1(O)CO)n1c3ccccc3c3c4c(c5c6ccccc6n2c5c31)CNC4=O [CEP-701]; details: top dose 2 µM; top dose inferred
Protocol: as §1

[3] = compound: CS(=O)(=O)N1CCN(Cc2cc3nc(-c4cccc5[nH]ncc45)nc(N4CCOCC4)c3s2)CC1 [GDC0941]; details: top dose 4 µM; screen: GDSC drug entry 1527; top dose inferred
Protocol: as §1

[4] = compound: Cc1ccc(Nc2nccc(N(C)c3ccc4c(C)n(C)nc4c3)n2)cc1S(N)(=O)=O [Pazopanib]; details: top dose 8 µM
Protocol: as §1

Row | Cell Line | AUC [1] | IC50 [1] [nM] | AUC [2] | IC50 [2] [nM] | AUC [3] | IC50 [3] [nM] | AUC [4] | IC50 [4] [nM]
1 | 647-V (bladder, adherent) | 0.85 | 3900 | 0.759 | 700 | 0.81 | 2120 | 0.921 | > 8000
2 | 23132-87 (stomach, adherent) | 0.544 | 423 | 0.664 | 364 | 0.543 | 328 | 0.955 | > 8000
3 | ASH-3 (thyroid, adherent) | 0.934 | > 5120 | 0.688 | 419 | 0.708 | 968 | 0.878 | > 8000
4 | BICR22 (head and neck, adherent) | 0.671 | 1040 | 0.724 | 600 | 0.643 | 661 | 0.972 | > 8000
5 | C-4-I (cervix, adherent) | 0.946 | > 5120 | 0.606 | 251 | 0.925 | > 4000 | 0.981 | > 8000
6 | CAL-78 (chondrosarcoma, adherent) | 0.9 | > 5120 | 0.83 | 1520 | 0.895 | > 4000 | 0.777 | 3700
7 | CCF-STTG1 (glioma, adherent) | 0.988 | > 5120 | 0.839 | 1380 | 0.855 | 3220 | 0.517 | 555
8 | COLO-783 (melanoma, adherent) | 0.631 | 726 | 0.867 | 1690 | 0.953 | > 4000 | 0.991 | > 8000
9 | DMS-53 (small cell lung carcinoma, adherent) | 0.908 | > 5120 | 0.934 | > 2000 | 0.976 | > 4000 | 0.915 | > 8000
10 | H513 (mesothelioma, semi-adherent) | 0.974 | > 5120 | 0.985 | > 2000 | 0.963 | > 4000 | 0.919 | > 8000
11 | H2369 (mesothelioma, adherent) | 0.708 | 1270 | 0.576 | 203 | 0.879 | > 4000 | 0.563 | 746
12 | H2461 (mesothelioma, adherent) | 0.704 | 1410 | 0.925 | > 2000 | 0.76 | 1740 | 0.864 | > 8000
13 | H3118 (head and neck, adherent) | 0.408 | 175 | 0.687 | 439 | 0.341 | 86.8 | 0.981 | > 8000
14 | HARA (lung squamous cell carcinoma, adherent) | 0.641 | 841 | 0.594 | 237 | 0.853 | 3950 | 0.97 | > 8000
15 | HCC1937 (breast, adherent) | 0.707 | 1350 | 0.852 | 1930 | 0.943 | > 4000 | 0.958 | > 8000
16 | HCC-15 (lung squamous cell carcinoma, adherent) | 0.91 | > 5120 | 0.717 | 621 | 0.77 | 1960 | 0.934 | > 8000
17 | HT55 (large intestine, adherent) | 0.671 | 953 | 0.895 | > 2000 | 0.926 | > 4000 | 0.797 | 3770
18 | HeLa (cervix, adherent) | 0.723 | 1320 | 0.723 | 520 | – | – | 0.93 | > 8000
19 | Hep 3B2_1-7 (liver, adherent) | 0.586 | 550 | 0.511 | 134 | 0.735 | 1170 | 0.618 | 1060
20 | Hs766T (pancreas, adherent) | 0.779 | 2820 | 0.669 | 432 | 0.92 | > 4000 | 0.951 | > 8000
21 | Hs939-T (melanoma, adherent) | 0.736 | 1630 | 0.806 | 1140 | 0.801 | 2160 | 0.944 | > 8000
22 | IA-LM (large cell lung carcinoma, adherent) | 0.829 | 3730 | 0.867 | > 2000 | 0.783 | 1900 | 0.858 | 7870
23 | JHH-7 (liver, adherent) | 0.661 | 869 | 0.656 | 329 | 0.791 | 1670 | 0.76 | 2650
24 | JHU-011 (head and neck, adherent) | 0.553 | 444 | 0.395 | 64.6 | 0.866 | 3480 | 0.842 | 5480
25 | JHU-022 (head and neck, adherent) | 0.786 | 2870 | 0.63 | 315 | 0.719 | 1250 | 0.982 | > 8000
26 | KYSE-450 (oesophagus, adherent) | 0.645 | 787 | 0.861 | 1540 | 0.773 | 1480 | 0.965 | > 8000
27 | LB373-MEL-D (melanoma, adherent) | 0.57 | 494 | 0.909 | > 2000 | 0.935 | > 4000 | 0.897 | > 8000
28 | LC-1-sq (lung squamous cell carcinoma, adherent) | 0.581 | 555 | 0.749 | 746 | 0.931 | > 4000 | 0.985 | > 8000
29 | LN-18 (glioma, adherent) | 0.769 | 1580 | 0.726 | 470 | 0.968 | > 4000 | 0.972 | > 8000
30 | LNZTA3WT4 (glioma, adherent) | 0.686 | 1050 | 0.596 | 228 | 0.889 | > 4000 | 0.94 | > 8000
